According to the supplement of paper PMC12645437, “Orthogonal IMiD-Degron Pairs Induce Selective Protein Degradation in Cells” (ACS Chemical Biology, 2025):
Some of the results follow.

B1: Q9UKT9 (peptide)
chain: FRCDVCGAGFTQKGNLLRHIKL
B2: Q9UKT9 (peptide)
chain: FCCPICGASFTQKGNLLRHIKL
B3: Q9UKT9 (peptide)
chain: FSCPQCGAKFTQKGNLLRHIKL
B4: Q9UKT9 (peptide)
chain: LICNQCGFFCTQKGNLLRHIKL
B5: Q9UKT9 (peptide)
chain: FHCEICGHCFTQKGNLLRHIKL
B6: Q9UKT9 (peptide)
chain: FKCPICGAVFTQKGNLLRHIKL
B7: Q9UKT9 (peptide)
chain: LSCEICGFWCTQKGNLLRHIKL
B8: Q9UKT9 (peptide)
chain: FCCNVCGAVFTQKGNLLRHIKL
B9: Q9UKT9 (peptide)
chain: LLCPICGFECTQKGNLLRHIKL
B10: Q9UKT9 (peptide)
chain: FKCEVCGAGFTQKGNLLRHIKL
B11: Q9UKT9 (peptide)
chain: FSCNVCGAIFTQKGNLLRHIKL
B12: Q9UKT9 (peptide)
chain: FGCEICGRRFTQKGNLLRHIKL
B13: Q9UKT9 (peptide)
chain: FCCSVCGHAFTQKGNLLRHIKL
B14: Q9UKT9 (peptide)
chain: FFCEICGAPFTQKGNLLRHIKL
B15: Q9UKT9 (peptide)
chain: FACDQCGAIFTQKGNLLRHIKL
B16: Q9UKT9 (peptide)
chain: FYCEQCGAWFTQKGNLLRHIKL
B17: Q9UKT9 (peptide)
chain: FHCEICGRDFTQKGNLLRHIKL
B18: Q9UKT9 (peptide)
chain: FTCPQCGASFTQKGNLLRHIKL
B19: Q9UKT9 (peptide)
chain: FDCPICGHMFTQKGNLLRHIKL
B20: Q9UKT9 (peptide)
chain: FHCNQCGHSFTQKGNLLRHIKL
B21: Q9UKT9 (peptide)
chain: FNCPVCGAAFTQKGNLLRHIKL
B22: Q9UKT9 (peptide)
chain: FDCEICGRKFTQKGNLLRHIKL
B23: Q9UKT9 (peptide)
chain: FDCDICGAQFTQKGNLLRHIKL
B24: Q9UKT9 (peptide)
chain: FACPICGRDFTQKGNLLRHIKL
B25: Q9UKT9 (peptide)
chain: FNCEICGHKFTQKGNLLRHIKL
B26: Q9UKT9 (peptide)
chain: FMCSVCGHYFTQKGNLLRHIKL
B27: Q9UKT9 (peptide)
chain: FACEICGHPFTQKGNLLRHIKL
B28: Q9UKT9 (peptide)
chain: LYCPICGFYCTQKGNLLRHIKL
B29: Q9UKT9 (peptide)
chain: LQCEICGFVCTQKGNLLRHIKL
B30: Q9UKT9 (peptide)
chain: FICNQCGRFFTQKGNLLRHIKL
B31: Q9UKT9 (peptide)
chain: FVCNQCGRQFTQKGNLLRHIKL
B32: Q9UKT9 (peptide)
chain: LVCEICGFLCTQKGNLLRHIKL
B33: Q9UKT9 (peptide)
chain: FCCEICGHWFTQKGNLLRHIKL
B34: Q9UKT9 (peptide)
chain: FRCDVCGAEFTQKGNLLRHIKL
B35: Q9UKT9 (peptide)
chain: FACEICGHLFTQKGNLLRHIKL
B36: Q9UKT9 (peptide)
chain: FDCPICGAWFTQKGNLLRHIKL
B37: Q9UKT9 (peptide)
chain: FYCNICGATFTQKGNLLRHIKL
B38: Q9UKT9 (peptide)
chain: FLCPVCGADFTQKGNLLRHIKL
B39: Q9UKT9 (peptide)
chain: FACPICGHPFTQKGNLLRHIKL
B40: Q9UKT9 (peptide)
chain: FMCDICGAGFTQKGNLLRHIKL
B41: Q9UKT9 (peptide)
chain: FMCEVCGATFTQKGNLLRHIKL
B42: Q9UKT9 (peptide)
chain: FACDQCGAQFTQKGNLLRHIKL
B43: Q9UKT9 (peptide)
chain: LVCPICGFQCTQKGNLLRHIKL
B44: Q9UKT9 (peptide)
chain: FECPICGRKFTQKGNLLRHIKL
B45: Q9UKT9 (peptide)
chain: LSCNQCGFICTQKGNLLRHIKL
B46: Q9UKT9 (peptide)
chain: FVCNQCGHIFTQKGNLLRHIKL
B47: Q9UKT9 (peptide)
chain: FACEICGAKFTQKGNLLRHIKL
B48: Q9UKT9 (peptide)
chain: FFCEICGRNFTQKGNLLRHIKL
B49: Q9UKT9 (peptide)
chain: FFCPICGHFFTQKGNLLRHIKL
B50: Q9UKT9 (peptide)
chain: FDCEICGRLFTQKGNLLRHIKL

Biological target: no compound (DMSO)
Test: log2 fold change of degron read counts, EGFP-low vs EGFP+ sorted cells; higher = lower degron-EGFP level without compound (poor expression or instability)
Conditions: compound: DMSO control; 18 h
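Note: jurkat cells carrying a lentiviral library of mutant zinc finger degrons fused to EGFP plus mCherry, mCherry+ cells FACS sorted, degron abundance counted by next-generation sequencing.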

| Sequence | log2 fold change of degron read counts |
| --- | --- |
| B1 | -1.72 |
| B2 | -0.247 |
| B3 | -0.568 |
| B4 | 1.73 |
| B5 | -1.16 |
| B6 | -0.71 |
| B7 | 0.991 |
| B8 | -0.355 |
| B9 | 0.526 |
| B10 | -1.57 |
| B11 | 0.035 |
| B12 | -0.511 |
| B13 | -0.7 |
| B14 | -0.255 |
| B15 | -1.59 |
| B16 | 0.264 |
| B17 | -1.72 |
| B18 | -0.943 |
| B19 | -1.04 |
| B20 | -0.651 |
| B21 | -0.728 |
| B22 | -1.52 |
| B23 | -2.05 |
| B24 | -0.334 |
| B25 | -1.23 |

| Sequence | log2 fold change of degron read counts |
| --- | --- |
| B26 | -0.313 |
| B27 | -0.597 |
| B28 | 1.69 |
| B29 | -0.89 |
| B30 | 0.438 |
| B31 | -0.806 |
| B32 | 0.0415 |
| B33 | 0.0287 |
| B34 | -2.61 |
| B35 | -0.954 |
| B36 | -0.0354 |
| B37 | -0.16 |
| B38 | -1.05 |
| B39 | 0.457 |
| B40 | -1.24 |
| B41 | -1.76 |
| B42 | -2 |
| B43 | 0.357 |
| B44 | -0.352 |
| B45 | 0.885 |
| B46 | 0.0579 |
| B47 | -2.26 |
| B48 | -1.52 |
| B49 | 1.17 |
| B50 | 0.0112 |
